“And” between values parts separate entries of the source, which are not always exact repeats. Identical values can stand only once. About 25,000 (6.9%) of roughly 360,000 compounds were called active. Inconclusive means that the source gave no clear call. Such entries were picked first, then a sample of the others. Calls follow the shape of the dose curve; as a rule, active = well fitted inhibition curve with a large enough effect; inconclusive = small, poorly fitted or top-dose-only effect; inactive = flat fitted curve, though single readings scatter. Potencies of inconclusive entries are doubtful fits and often do not repeat.
What follows are compounds tested against Luciferin 4-monooxygenase (Photinus pyralis) (UniProt P08659) (assay: qHTS profiling assay for firefly luciferase inhibitor/activator using purifed enzyme and Km concentrations of substrates (counterscreen for miR-21 project)). Details: purified FLuc, luminescence inhibition; series mostly up to 57.5 µM; activity change, negative = inhibition: at the top concentration.
Sequence of UniProt P08659 (P08659 whole entry, looked up): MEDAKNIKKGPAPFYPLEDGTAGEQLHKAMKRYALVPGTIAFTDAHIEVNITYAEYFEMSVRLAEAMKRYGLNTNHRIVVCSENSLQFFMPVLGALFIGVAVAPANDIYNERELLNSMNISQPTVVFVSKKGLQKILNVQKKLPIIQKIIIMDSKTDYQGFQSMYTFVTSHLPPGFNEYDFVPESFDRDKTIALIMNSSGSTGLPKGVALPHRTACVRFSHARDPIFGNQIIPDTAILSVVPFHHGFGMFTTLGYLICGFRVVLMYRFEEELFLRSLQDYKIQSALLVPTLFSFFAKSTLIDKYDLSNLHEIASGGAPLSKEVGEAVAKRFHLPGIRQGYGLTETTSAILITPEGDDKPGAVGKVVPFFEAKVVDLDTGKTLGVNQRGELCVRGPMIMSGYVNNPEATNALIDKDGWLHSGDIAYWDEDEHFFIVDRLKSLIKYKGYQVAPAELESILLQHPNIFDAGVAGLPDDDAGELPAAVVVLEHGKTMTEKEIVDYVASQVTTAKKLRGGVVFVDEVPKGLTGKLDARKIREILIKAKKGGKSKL
Procedure, shortened: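 Biochemical qHTS of compounds, final roughly 60 µM downward over six points, against 10 nM purified firefly luciferase using Km concentrations of substrates (10 uM D-luciferin, 10 uM ATP) in Tris acetate pH 7.5 buffer; luminescence output.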
For `COc1ccc(/C=C/C(=O)Nc2cccc(S(=O)(=O)NC3=NCCCCC3)c2)cc1OC`, the Potency was inconclusive: 16.9 µM [inhibitor, partial curve]. `NC(=O)C1CCN(c2nc(-c3cccc4sc5ccccc5c34)cs2)CC1` was tested, and the Potency was inconclusive: 6.75 µM [inhibitor, partial curve]. For `COC(=O)c1nn(-c2ccccc2)c(Cl)c1/C=N/OCc1ccc(Cl)cc1Cl`, the Potency was inconclusive: 6.01 µM [inhibitor, partial curve]. With `Cc1cccc(C(=O)Nc2sc(-c3ccccc3)cc2C(=O)O)c1` the Potency was active: 10.7 µM. `CCCOc1ccc(-c2c(C(=O)N/N=C/c3cccs3)nnn2-c2nonc2N)cc1` was tested, and the “activity change, negative = inhibition” value was inactive: 1.78%. `Cc1ccc(C2/C(=C(/O)c3cnn(-c4ccccc4)c3C)C(=O)C(=O)N2CCN2CCOCC2)o1` (stereo unspecified) was tested, and the Potency was active: 21.3 µM. For `CN1CCN(c2ccc(S(=O)(=O)N3CCCCC3)cc2NC(=O)Cc2c(F)cccc2Cl)CC1`, the “activity change, negative = inhibition” value was inactive: 4.5%. For `O=C(N/N=C/c1ccc(OCc2ccccc2)cc1)c1ccco1`, the Potency was inconclusive: 3.38 µM [inhibitor, partial curve, poor fit]. `COc1ccc(Cc2nc(=S)[nH][nH]2)cc1Br` was tested, and the Potency was inconclusive: 37.9 µM [inhibitor, single point]. In the case of `O=C(NC(=S)NCCN1CCOCC1)c1ccc(F)cc1`, the “activity change, negative = inhibition” value is reported as inactive: 0.619%. With `Cc1oc2cc([N+](=O)[O-])c(O)c([N+](=O)[O-])c2c1C(=O)c1ccc(Br)cc1` the Potency was inconclusive: 26.9 µM [inhibitor, single point]. For `O=C(Nc1ccc2c(c1)OCO2)C1CC(=O)N(c2ccc(F)cc2)C1` (stereo unspecified), the “activity change, negative = inhibition” value was inactive: -10.2%. `Cc1cccc(C)c1Nc1c(-c2ccc(N3CCOCC3)cc2)nc2cnccn12` was tested, and the Potency was inconclusive: 37.9 µM [inhibitor, partial curve, poor fit]. In the case of `N#CCN(C(=O)COC(=O)CCCNC(=O)c1ccc(Cl)cc1)c1ccccc1`, the Potency is reported as inconclusive: 37.9 µM [inhibitor, single point]. For `O=C(CSc1nc2c([nH]c3ccccc32)c(=O)n1-c1ccccc1)N1CCCCCC1`, the “activity change, negative = inhibition” value was inactive: 5.23%. For `Cc1ccc(N2CCN(c3ccc(C)cc3)C2c2ccccn2)cc1`, the Potency was inconclusive: 30.1 µM [inhibitor, partial curve, poor fit]. `CN(C)/C=C/C(=O)c1ccc(Cl)cc1` was tested, and the Potency was inconclusive: 26.9 µM [inhibitor, partial curve, poor fit]. For `O=C(CSc1nc2ccccc2c(=O)n1CC1CCCO1)Nc1ccc(F)cc1` (stereo unspecified), the “activity change, negative = inhibition” value was inactive: -1.74%. `C=CCN1C(=Nc2cccnc2)SCC1(O)c1ccc(C)cc1` (stereo unspecified) was tested, and the Potency was inconclusive: 23.9 µM [inhibitor, single point]. With `O=C(O)c1ccc(NC(=O)c2cc3ccccc3o2)cc1` the Potency was active: 3.01 µM and active: 2.13 µM. With `Cc1c(C(=O)Nc2ccc(S(=O)(=O)N3CCOCC3)cc2)cccc1[N+](=O)[O-]` the “activity change, negative = inhibition” value was inactive: -1.08%. With `O=C(NCCCN1CCN(c2ccccc2F)CC1)c1cc2c(s1)-c1ccccc1OC2` the “activity change, negative = inhibition” value was inactive: -14.8%. With `CN1N=C(C(=O)Nc2ccc3c(c2)CCC3)CCC1=O` the Potency was inconclusive: 26.9 µM [inhibitor, single point]. `Cc1ccccc1N/C=C/C(=C(C#N)C#N)N(C)C` was tested, and the “activity change, negative = inhibition” value was inactive: -1.07%. `O=S(=O)(Nc1ccn(-c2ccccc2)n1)c1ccc(Br)cc1` was tested, and the Potency was inconclusive: 23.9 µM [inhibitor, single point]. `CCOC(=O)c1csc(-c2ccc3c(c2)CCO3)n1` was tested, and the Potency was active: 4.78 µM. For `CCN(CC)S(=O)(=O)c1cccc(C(=O)Nc2nc3cc4c(cc3s2)OCCO4)c1`, the Potency was active: 9.53 µM. In the case of `Cc1c(C(=O)O)sc2nc(SCC(=O)Nc3ccc(S(=O)(=O)NC(C)(C)C)cc3)[nH]c(=O)c12`, the Potency is reported as inconclusive: 26.9 µM [inhibitor, partial curve]. For `CCOC(=O)c1cc(-c2ccccc2)n(-c2cccc(C(=O)Nc3cccc(C(C)=O)c3)c2)c1C`, the “activity change, negative = inhibition” value was inactive: -8.67%. `CC(=O)Nc1ccc(OCC(=O)c2ccc(C)cc2C)cc1` was tested, and the Potency was inconclusive: 37.9 µM [inhibitor, single point]. In the case of `CCOc1ccc(CN(C)C(=O)CCc2ccc(S(=O)(=O)N3CCCCCC3)cc2)cc1`, the “activity change, negative = inhibition” value is reported as inactive: 3.2%. With `O=C(N/N=C/c1cccnc1)c1cc2c(ccc3ccccc32)o1` the Potency was inconclusive: 3.79 µM [inhibitor, partial curve, poor fit]. `Cc1c(Cl)cccc1NC(=O)Cn1cc2c(n1)CCCC2` was tested, and the “activity change, negative = inhibition” value was inactive: -1.38%. With `COc1ccc(C)cc1-n1nnc(C(=O)Nc2cccc(SC)c2)c1C` the “activity change, negative = inhibition” value was inactive: -3.1%. `CSc1nnc(Cc2sc(-c3ccccc3)nc2-c2ccccc2)o1` was tested, and the Potency was inconclusive: 26.9 µM [inhibitor, single point]. With `Cc1cc(NC(=O)c2ccco2)ncc1NC(=O)CCc1ccccc1` the Potency was inconclusive: 21.3 µM [inhibitor, single point]. With `O=S(=O)(Nc1cccc(-c2ccc(N3CCCC3)nn2)c1)c1ccc(F)c(C(F)(F)F)c1` the Potency was active: 19 µM. In the case of `CCCc1cc(C(=O)Cc2nc3ccccc3s2)c(O)cc1O`, the Potency is reported as inconclusive: 37.9 µM [inhibitor, partial curve, poor fit]. With `O=C(O)c1cc(/C=C/C(=O)c2cc(F)ccc2O)c2c(c1)COCO2` the Potency was active: 30.1 µM. `O=C1NC(c2ccccc2)Nc2c1sc(=S)n2-c1ccccc1` (stereo unspecified) was tested, and the Potency was inconclusive: 21.3 µM [inhibitor, single point]. In the case of `COc1ccc(-c2nnc(SCC(=O)N(C)Cc3ccccc3)o2)cc1OC`, the Potency is reported as inconclusive: 12 µM [inhibitor, partial curve]. `CCOC(=O)c1sc(NC(=O)c2c(OC)cccc2OC)nc1C` was tested, and the activity change, negative = inhibition was inactive: 4.1% [at 2.3 µM]. `COc1ccc2oc(-c3ccccc3[N+](=O)[O-])cc(=O)c2c1` was tested, and the Potency was inconclusive: 4.26 µM [inhibitor, partial curve, poor fit]. `COc1cc(OC)c(N2CC(C(=O)Nc3cc(Cl)ccc3N3CCOCC3)CC2=O)cc1Cl` (stereo unspecified) was tested, and the “activity change, negative = inhibition” value was inactive: -1.25%. `COc1ccc(-c2cc(C(=O)NCC(c3ccccc3)N(C)C)c3ccccc3n2)cc1OC` (stereo unspecified) was tested, and the Potency was inconclusive: 26.9 µM [inhibitor, single point]. With `O=C(CN1CCCCCC1)NCCN1C(=O)S/C(=C\c2ccccc2Cl)C1=O` the “activity change, negative = inhibition” value was inactive: -7.09%.

— PubChem BioAssay AID588342 (National Center for Advancing Translational Sciences (NCATS), 2011)
Also: nearly all actives have a fitted effect of over 55% in size.
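For activity change, negative = inhibition in this document: plate controls were vehicle for no effect and reference inhibitor for full effect.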
Potency is read from the fitted curve at half-maximal effect; tags tell the direction and shape of the fitted curve.
